Assay [1] concerns the target CC2D2A aa 433-637 (coiled-coil domains 1 and 2) fused to the GAL4 DNA binding domain (human) (UniProt Q9P2K1). The assay can be described thus: two-hybrid; GAL4-based yeast two-hybrid (Hybrizap), strain PJ69-4A; CC2D2A fused to GAL4-BD as bait, NINL fused to GAL4-AD as prey; growth on media deficient of histidine and adenine, alpha- and beta-galactosidase reactions.
In assay [2] the target is FLAG-tagged CC2D2A (Coiled-coil and C2-domains containing protein 2A) (human) (UniProt Q9P2K1). The assay can be described thus: co-IP; HEK293T co-transfected; lysis in 50 mM Tris-HCl pH 7.5, 150 mM NaCl, 1% Triton-X-100; FLAG-tagged proteins precipitated with anti-FLAG M2 agarose beads; immunoblot. Background: Immunoblotting shows a protein as a band on a membrane.
Another assay deals with FLAG-tagged LRRK2 (UniProt Q5S007). The description is as above.
Assay [3] has as its target eGFP-tagged MICAL3 (Microtubule-associated Monooxygenase, Calponin and LIM domain containing 3 protein) (UniProt Q7RTP6). In words: co-IP; HEK293T co-transfected; lysis in 50 mM Tris-HCl pH 7.5, 150 mM NaCl, 1% Triton-X-100; eGFP-tagged MICAL3 (or eGFP) precipitated with anti-GFP polyclonal antibodies coupled to ProtA/G beads; immunoblot.
For assay [4], the target named is HA-tagged NINL isoform B (human) (UniProt Q9Y2I6). The assay can be described thus: co-IP; HEK293T co-transfected; lysis in 50 mM Tris-HCl pH 7.5, 150 mM NaCl, 1% Triton-X-100; HA-tagged NINL isoform B precipitated overnight at 4°C with rat monoclonal anti-HA beads; immunoblot.
The target in a further assay is T1, FLAG-tagged STRAD (UniProt Q7RTN6).
T1 sequence: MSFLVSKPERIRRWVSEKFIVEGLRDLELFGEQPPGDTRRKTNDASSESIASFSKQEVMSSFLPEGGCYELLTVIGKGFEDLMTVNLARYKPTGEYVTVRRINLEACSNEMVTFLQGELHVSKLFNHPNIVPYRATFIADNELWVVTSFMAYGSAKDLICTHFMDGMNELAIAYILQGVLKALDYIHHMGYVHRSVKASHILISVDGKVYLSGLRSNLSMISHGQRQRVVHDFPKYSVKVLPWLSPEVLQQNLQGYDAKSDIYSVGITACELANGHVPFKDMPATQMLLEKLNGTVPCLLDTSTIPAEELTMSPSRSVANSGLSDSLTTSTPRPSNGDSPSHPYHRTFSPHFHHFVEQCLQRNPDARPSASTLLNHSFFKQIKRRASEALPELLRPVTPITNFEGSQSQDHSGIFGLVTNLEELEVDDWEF
In words: co-IP; HEK293T co-transfected; lysis in 50 mM Tris-HCl pH 7.5, 150 mM NaCl, 1% Triton-X-100; FLAG-tagged proteins precipitated with anti-FLAG M2 agarose beads; immunoblot.

Protein sequences, listed by entry. Tags and fused reporters are not part of them. Lines headed by an entry give the natural chain unless they say otherwise; changes in a name come on top. Chains listed by the source or under a name are the forms on record and can include a tag or linker. Residues count along the entry.
UniProt Q9P2K1: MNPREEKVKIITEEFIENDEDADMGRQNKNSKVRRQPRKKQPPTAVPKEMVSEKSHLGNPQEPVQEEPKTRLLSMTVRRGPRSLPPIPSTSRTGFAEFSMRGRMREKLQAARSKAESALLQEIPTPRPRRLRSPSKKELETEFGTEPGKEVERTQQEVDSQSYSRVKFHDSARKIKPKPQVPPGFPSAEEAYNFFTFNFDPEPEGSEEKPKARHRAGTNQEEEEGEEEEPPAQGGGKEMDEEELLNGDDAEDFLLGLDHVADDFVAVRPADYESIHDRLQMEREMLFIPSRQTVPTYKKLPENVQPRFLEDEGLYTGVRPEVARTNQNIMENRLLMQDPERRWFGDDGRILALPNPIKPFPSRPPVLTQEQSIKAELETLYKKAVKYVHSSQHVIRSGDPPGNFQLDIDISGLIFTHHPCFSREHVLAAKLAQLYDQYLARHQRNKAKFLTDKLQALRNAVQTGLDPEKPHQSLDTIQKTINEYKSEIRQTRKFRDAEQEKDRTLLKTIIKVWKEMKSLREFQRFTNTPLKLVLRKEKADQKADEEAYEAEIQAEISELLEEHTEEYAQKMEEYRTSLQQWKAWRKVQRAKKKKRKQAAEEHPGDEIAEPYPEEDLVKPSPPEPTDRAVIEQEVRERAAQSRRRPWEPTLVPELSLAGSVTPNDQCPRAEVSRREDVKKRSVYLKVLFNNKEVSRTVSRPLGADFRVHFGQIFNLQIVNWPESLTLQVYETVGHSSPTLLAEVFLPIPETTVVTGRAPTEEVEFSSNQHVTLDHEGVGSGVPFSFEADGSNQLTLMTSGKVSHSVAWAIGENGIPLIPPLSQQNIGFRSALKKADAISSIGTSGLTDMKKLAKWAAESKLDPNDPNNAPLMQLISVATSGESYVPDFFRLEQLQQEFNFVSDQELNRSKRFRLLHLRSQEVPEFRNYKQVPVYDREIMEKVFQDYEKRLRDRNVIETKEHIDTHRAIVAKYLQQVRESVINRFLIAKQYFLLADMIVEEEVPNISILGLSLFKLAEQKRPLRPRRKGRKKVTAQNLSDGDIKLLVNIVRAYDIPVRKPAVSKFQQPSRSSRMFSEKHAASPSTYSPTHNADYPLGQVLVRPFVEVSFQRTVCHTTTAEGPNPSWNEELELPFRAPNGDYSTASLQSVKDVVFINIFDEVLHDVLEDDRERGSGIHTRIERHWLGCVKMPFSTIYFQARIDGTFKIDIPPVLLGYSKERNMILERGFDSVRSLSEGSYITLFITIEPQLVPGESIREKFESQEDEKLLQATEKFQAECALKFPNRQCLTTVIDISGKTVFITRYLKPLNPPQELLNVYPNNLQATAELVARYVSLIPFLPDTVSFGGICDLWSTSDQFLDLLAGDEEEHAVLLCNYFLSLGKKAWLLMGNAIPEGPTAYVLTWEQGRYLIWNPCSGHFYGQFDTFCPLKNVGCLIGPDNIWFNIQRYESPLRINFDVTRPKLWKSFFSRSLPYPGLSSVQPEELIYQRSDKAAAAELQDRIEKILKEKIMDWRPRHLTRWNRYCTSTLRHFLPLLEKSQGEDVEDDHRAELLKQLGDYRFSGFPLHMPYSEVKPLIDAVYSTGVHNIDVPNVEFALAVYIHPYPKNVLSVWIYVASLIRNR
CC2D2A aa 433-637 (coiled-coil domains 1 and 2) fused to the GAL4 DNA binding domain: residues 433-637 of Q9P2K1
UniProt Q7RTP6: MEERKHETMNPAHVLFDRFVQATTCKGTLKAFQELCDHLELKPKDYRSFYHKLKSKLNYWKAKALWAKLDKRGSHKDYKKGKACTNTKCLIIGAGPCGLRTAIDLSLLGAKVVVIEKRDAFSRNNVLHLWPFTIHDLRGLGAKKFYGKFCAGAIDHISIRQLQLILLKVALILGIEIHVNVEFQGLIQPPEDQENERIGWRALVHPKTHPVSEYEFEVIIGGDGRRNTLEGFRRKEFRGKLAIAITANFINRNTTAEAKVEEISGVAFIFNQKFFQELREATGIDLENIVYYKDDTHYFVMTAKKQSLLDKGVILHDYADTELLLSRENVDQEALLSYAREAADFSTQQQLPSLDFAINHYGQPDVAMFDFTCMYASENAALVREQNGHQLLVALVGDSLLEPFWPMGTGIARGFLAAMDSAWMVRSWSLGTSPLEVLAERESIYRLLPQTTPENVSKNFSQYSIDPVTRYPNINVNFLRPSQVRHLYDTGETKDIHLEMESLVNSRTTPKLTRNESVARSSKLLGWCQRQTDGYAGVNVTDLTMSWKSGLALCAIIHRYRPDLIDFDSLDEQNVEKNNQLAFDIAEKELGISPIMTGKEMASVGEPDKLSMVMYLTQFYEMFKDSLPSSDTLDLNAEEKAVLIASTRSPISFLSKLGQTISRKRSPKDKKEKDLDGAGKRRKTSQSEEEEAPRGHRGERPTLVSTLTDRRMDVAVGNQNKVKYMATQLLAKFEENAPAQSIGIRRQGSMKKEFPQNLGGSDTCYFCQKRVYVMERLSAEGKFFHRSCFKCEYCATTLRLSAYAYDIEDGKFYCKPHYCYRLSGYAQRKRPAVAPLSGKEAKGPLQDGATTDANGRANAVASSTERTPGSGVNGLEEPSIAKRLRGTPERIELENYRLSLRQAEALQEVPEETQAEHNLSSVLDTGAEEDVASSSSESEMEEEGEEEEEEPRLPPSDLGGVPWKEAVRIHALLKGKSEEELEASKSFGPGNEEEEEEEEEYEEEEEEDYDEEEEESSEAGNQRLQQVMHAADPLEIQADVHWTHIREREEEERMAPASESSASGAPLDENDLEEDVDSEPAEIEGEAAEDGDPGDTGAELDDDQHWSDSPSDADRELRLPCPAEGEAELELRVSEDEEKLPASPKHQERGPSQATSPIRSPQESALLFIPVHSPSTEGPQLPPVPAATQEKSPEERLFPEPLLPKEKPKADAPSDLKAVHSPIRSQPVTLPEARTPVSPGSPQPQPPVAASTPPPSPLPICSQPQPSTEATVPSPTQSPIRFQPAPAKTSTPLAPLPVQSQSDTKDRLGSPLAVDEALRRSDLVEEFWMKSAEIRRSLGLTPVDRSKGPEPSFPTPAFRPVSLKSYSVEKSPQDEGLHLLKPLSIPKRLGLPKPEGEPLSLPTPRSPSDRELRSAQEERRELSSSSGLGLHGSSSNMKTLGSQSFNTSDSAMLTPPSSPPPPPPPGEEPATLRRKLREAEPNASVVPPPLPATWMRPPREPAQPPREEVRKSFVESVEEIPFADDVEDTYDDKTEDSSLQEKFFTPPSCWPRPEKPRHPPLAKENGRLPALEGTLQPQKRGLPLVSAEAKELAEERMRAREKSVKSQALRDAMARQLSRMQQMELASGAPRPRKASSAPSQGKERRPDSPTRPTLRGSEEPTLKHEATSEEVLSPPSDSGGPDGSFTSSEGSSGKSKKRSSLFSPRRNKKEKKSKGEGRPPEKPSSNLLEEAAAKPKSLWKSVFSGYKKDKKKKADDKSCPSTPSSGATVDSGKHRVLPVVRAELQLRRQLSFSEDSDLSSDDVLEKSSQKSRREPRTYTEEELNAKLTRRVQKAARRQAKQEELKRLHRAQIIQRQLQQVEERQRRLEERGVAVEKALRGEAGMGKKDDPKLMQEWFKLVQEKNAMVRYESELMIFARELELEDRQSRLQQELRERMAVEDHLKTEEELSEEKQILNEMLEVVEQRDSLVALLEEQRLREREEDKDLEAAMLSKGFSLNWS
UniProt Q9Y2I6: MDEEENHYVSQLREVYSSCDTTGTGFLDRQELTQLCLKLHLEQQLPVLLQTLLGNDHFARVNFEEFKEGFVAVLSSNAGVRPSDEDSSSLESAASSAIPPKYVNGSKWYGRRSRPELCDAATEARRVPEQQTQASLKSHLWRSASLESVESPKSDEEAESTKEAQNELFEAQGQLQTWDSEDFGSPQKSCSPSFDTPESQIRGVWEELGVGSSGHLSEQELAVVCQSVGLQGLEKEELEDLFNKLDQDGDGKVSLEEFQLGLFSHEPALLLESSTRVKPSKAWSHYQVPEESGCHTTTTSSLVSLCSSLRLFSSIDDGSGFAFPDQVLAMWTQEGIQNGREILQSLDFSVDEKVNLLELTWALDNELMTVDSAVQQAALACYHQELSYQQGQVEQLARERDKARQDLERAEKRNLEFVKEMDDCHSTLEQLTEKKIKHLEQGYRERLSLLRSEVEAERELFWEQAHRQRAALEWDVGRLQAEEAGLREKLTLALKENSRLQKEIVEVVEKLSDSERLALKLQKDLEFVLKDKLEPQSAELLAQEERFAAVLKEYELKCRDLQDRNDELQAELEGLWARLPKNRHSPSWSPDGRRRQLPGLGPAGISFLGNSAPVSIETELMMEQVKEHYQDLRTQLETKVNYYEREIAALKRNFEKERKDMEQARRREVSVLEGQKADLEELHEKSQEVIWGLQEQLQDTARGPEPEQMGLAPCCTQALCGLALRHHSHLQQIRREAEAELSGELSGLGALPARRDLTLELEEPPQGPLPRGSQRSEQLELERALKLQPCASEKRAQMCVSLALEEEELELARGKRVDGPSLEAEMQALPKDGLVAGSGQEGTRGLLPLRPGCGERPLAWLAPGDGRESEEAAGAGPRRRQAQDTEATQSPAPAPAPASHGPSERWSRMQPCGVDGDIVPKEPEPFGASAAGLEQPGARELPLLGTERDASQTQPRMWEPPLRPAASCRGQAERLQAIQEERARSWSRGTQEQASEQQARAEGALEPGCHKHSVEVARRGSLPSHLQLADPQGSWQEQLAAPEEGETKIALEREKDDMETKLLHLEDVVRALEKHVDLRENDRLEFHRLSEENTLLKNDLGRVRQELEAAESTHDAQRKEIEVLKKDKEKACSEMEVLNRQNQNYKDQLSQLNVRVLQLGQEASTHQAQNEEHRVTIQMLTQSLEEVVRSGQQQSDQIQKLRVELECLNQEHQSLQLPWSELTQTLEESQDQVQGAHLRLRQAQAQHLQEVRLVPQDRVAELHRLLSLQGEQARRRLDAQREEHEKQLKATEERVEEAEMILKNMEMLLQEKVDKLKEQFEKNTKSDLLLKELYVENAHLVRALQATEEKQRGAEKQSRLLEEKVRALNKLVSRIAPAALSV
HA-tagged NINL isoform B (Q9Y2I6-2, form named): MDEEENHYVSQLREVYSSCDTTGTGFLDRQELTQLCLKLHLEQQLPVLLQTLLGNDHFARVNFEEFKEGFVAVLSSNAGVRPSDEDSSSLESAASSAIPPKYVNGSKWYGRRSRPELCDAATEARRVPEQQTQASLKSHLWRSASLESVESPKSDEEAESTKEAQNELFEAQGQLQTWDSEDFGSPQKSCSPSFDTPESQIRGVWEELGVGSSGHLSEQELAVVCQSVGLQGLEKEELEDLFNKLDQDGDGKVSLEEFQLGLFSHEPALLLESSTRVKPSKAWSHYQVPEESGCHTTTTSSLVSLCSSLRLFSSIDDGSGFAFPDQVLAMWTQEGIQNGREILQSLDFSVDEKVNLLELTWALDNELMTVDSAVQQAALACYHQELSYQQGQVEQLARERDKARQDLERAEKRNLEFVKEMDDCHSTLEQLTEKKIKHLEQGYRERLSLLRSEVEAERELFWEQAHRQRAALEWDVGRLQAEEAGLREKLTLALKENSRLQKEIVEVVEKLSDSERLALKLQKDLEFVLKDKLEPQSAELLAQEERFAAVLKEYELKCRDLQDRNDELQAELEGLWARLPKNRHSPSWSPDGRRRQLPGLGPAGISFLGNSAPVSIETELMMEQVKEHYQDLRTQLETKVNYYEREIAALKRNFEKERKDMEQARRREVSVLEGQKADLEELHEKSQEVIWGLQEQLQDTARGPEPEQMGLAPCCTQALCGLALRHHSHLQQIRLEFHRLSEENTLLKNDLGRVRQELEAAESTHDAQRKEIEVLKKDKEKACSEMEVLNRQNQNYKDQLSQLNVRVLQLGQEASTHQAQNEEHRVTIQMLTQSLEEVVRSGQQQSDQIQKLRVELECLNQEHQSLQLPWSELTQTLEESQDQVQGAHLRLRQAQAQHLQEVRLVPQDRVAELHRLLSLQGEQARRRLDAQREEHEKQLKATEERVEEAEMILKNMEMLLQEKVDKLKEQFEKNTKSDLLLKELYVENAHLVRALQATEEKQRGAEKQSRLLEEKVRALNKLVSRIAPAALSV

Assay [5] concerns the target Strep/FLAG-tagged (SF-TAP) NINL isoform B (human) (UniProt Q9Y2I6). The description is as above.

No constants are given. Whether binding was seen depends on the method and setting. For some of these results: In cells and extracts the contact can be indirect. Some binding calls cover weakened binding; strength is not graded here. For some of these results: Tags and fused reporters may be left off the sequences shown.

“NINL (Ninein-like protein) isoform A fused to the GAL4 activation domain (from UniProt Q9Y2I6 1-1382)”: the binding entry in assay [1] is “binds”.
For the molecule “HA-tagged NINL isoform B (from UniProt Q9Y2I6-2 1-1033)”, the binding entry in assay [2] was “binds”; with FLAG-tagged LRRK2 it was “no binding”.
Consider “Strep/FLAG-tagged (SF-TAP) NINL isoform B (from UniProt Q9Y2I6-2 1-1033)”, for which the binding result in assay [3] was “binds”.
In the case of “FLAG-tagged LRRK2 (from UniProt Q5S007 1-2527)”, the binding result in assay [4] is recorded as “no binding”.
As for “NINL (Ninein-like protein) isoform B fused to the GAL4 activation domain (from UniProt Q9Y2I6-2 1-1033)”, in assay [1], the binding entry is listed as “binds”.
As for “eGFP-tagged MICAL3 (Microtubule-associated Monooxygenase, Calponin and LIM domain containing 3 protein) (from UniProt Q7RTP6 1-2002)”, the binding result in the assay with FLAG-tagged STRAD is on record as “no binding”; in assay [5] it was “binds”.
With “FLAG-tagged CC2D2A (Coiled-coil and C2-domains containing protein 2A) (from UniProt Q9P2K1-4 1-1620)”, in assay [4], the binding result is reported as “binds”.

B1: FLAG-tagged STRAD (protein, UniProt Q7RTN6 1-431)
chain: MSFLVSKPERIRRWVSEKFIVEGLRDLELFGEQPPGDTRRKTNDASSESIASFSKQEVMSSFLPEGGCYELLTVIGKGFEDLMTVNLARYKPTGEYVTVRRINLEACSNEMVTFLQGELHVSKLFNHPNIVPYRATFIADNELWVVTSFMAYGSAKDLICTHFMDGMNELAIAYILQGVLKALDYIHHMGYVHRSVKASHILISVDGKVYLSGLRSNLSMISHGQRQRVVHDFPKYSVKVLPWLSPEVLQQNLQGYDAKSDIYSVGITACELANGHVPFKDMPATQMLLEKLNGTVPCLLDTSTIPAEELTMSPSRSVANSGLSDSLTTSTPRPSNGDSPSHPYHRTFSPHFHHFVEQCLQRNPDARPSASTLLNHSFFKQIKRRASEALPELLRPVTPITNFEGSQSQDHSGIFGLVTNLEELEVDDWEF
Consider B1, for which the binding result in assay [3] is “no binding”.

The values are drawn from article PMC4617701.
